The record followed here is article PMC7819943, “Rice protein-binding microarrays: a tool to detect cis-acting elements near promoter regions in rice”.

Some of the results follow.

This assay concerns the target T1, OsWOX13 (Oryza sativa, UniProt Q5QMM3 1-267).
T1 sequence: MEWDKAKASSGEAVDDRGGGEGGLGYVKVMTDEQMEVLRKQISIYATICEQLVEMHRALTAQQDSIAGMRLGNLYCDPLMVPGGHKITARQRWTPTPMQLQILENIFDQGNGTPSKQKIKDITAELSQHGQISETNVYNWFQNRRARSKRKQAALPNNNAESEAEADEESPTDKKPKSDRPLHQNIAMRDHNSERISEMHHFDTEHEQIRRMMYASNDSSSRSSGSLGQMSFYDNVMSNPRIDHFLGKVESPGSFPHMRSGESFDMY
As to the kind of experiment: protein-binding microarray (RPBM); PBS, 2% BSA, 51.3 ng/ul salmon testes DNA, 50 uM zinc acetate, 200 nM TF, 25 C, 1 h; high values mean tight binding. To be noted: protein: recombinant; tags: N-terminal polyhistidine and DsRed monomer fusion (pET32a); label: CyDye5-dUTP incorporated in the synthesized complementary strand; 3' TTTTT single-stranded linker to array surface; dsDNA, one strand shown. In short, it runs like this:
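Polyhistidine-tagged DsRed fusions of transcription factors, joined at the N-terminus, were expressed in E. coli BL21-CodonPlus and isolated on Ni–NTA. They were incubated at 200 nM for 1 h at 25 °C on a custom Agilent array, double-stranded and BSA-blocked, in PBS with 2% BSA, salmon testes DNA and 50 µM zinc acetate. The binding signal is per-feature fluorescence intensity (arbitrary units) read on an Axon 4000B scanner after washing.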
Regarding “CCGAACCACAAACAGACTGGGATTGCATTTGCAATAGGCACGGAGTCACCTAGTGCAG”, the binding signal is 5080 fluorescence intensity (a.u.). For the sequence “AGAACTGATTAGAGAAACACATTCGAGATATGCGGTTTGCCGGAGTCACCTAGTGCAG”, the binding signal was 35000 fluorescence intensity (a.u.). As for “CTAACTAATTACTCGGCCAACCGGTTGCTGGGAACATAACCGGAGTCACCTAGTGCAG”, the figure is 5760 fluorescence intensity (a.u.); as for “TAGTTACATAGATAATTTATAACAATACTCCACTTAATATCGGAGTCACCTAGTGCAG”, 8530 fluorescence intensity (a.u.). Regarding “AGCCCACTCATAATTTACCAATCCCAAAGAAGATACCTCGCGGAGTCACCTAGTGCAG”, the binding signal is 4220 fluorescence intensity (a.u.). As for “TCTGATTTGGGAATTAAAACCTCCAATTTAGGTCGATTCCCGGAGTCACCTAGTGCAG”, the figure is 32200 fluorescence intensity (a.u.).

Consider “CATGACAGAAATGCATGTGACACTTCCATCCTTTCTTGTACGGAGTCACCTAGTGCAG”, for which the binding signal was 11300 fluorescence intensity (a.u.).

In the case of “CGTGAGAATGACAAATTGTTAATTATTCCGGGCTTGGGACCGGAGTCACCTAGTGCAG”, the binding signal was 16200 fluorescence intensity (a.u.).

For “GACGATCAAATTAAACTGACTTTCTGATCACCTGAAACGACGGAGTCACCTAGTGCAG”, the binding signal was 8580 fluorescence intensity (a.u.). Take “ACTCGCATAATTAACATTTAACAAGCGCTGAAATCCGTTTCGGAGTCACCTAGTGCAG”: the binding signal is 20800 fluorescence intensity (a.u.). The figure for “ATATTGGCACTTAATTAACACAGTGGCCTAAGCAGAAGCCCGGAGTCACCTAGTGCAG” is 4100 fluorescence intensity (a.u.). As to “AATGATTATCTATAAGCTCTCTACAAGAGATCCATGTTAGCGGAGTCACCTAGTGCAG”, the binding signal was 38200 fluorescence intensity (a.u.). The figure for “TGAATCTAATTGATGCCTTTTCAGGTTGATAAAGAAGAGGCGGAGTCACCTAGTGCAG” is 16400 fluorescence intensity (a.u.).

Take “ATTCTCGATTTAACACTAATCATCATTATCCTAATAACCACGGAGTCACCTAGTGCAG”: the binding signal is 6320 fluorescence intensity (a.u.). In the case of “TCTTTTGATTATCATCAAACTAATATGACTTGTTGATCTTCGGAGTCACCTAGTGCAG”, the binding signal was 25200 fluorescence intensity (a.u.). As to “CACGAGCTAGGTTGATTGGTAGCTAGCAGCTAGCTCCAGCCGGAGTCACCTAGTGCAG”, the binding signal was 9190 fluorescence intensity (a.u.). The figure for “TTTTAATCAAACTCCACATTAAATTAATAAATTAGGTGATCGGAGTCACCTAGTGCAG” is 11800 fluorescence intensity (a.u.); for “CTGGCTAATTAACTAGCTAGCTCGTGATCGATAATATACACGGAGTCACCTAGTGCAG” it is 14200 fluorescence intensity (a.u.). The figure for “AACTAATTACGGAATCCGTCAGTAAACAACGAGACGAATTCGGAGTCACCTAGTGCAG” is 11100 fluorescence intensity (a.u.); for “CAAATCAATTATATCCCCAAATTTCTCACCAGTCTACTTCCGGAGTCACCTAGTGCAG” it is 16200 fluorescence intensity (a.u.). On to “CAATTAACACATGATGAATTAATTATTAACTATTATAAACCGGAGTCACCTAGTGCAG”, for which the binding signal was 11700 fluorescence intensity (a.u.).

For the sequence “TGCATCCAATCAAAGTGATGAGTATATCTGTGTTCCTTCCCGGAGTCACCTAGTGCAG”, the binding signal was 14300 fluorescence intensity (a.u.). Turning to “ATAATTGAATTAAACTGAAATGTTACAATAACCCTCTTTTCGGAGTCACCTAGTGCAG”, the binding signal was 42800 fluorescence intensity (a.u.). As for “TTTAACACGTAATTGATCATGACTCATGAGCTAATCATCCCGGAGTCACCTAGTGCAG”, the figure is 35600 fluorescence intensity (a.u.); as for “CCACACCAATTAAAATGATGGCGTTGTACAGTTCATCGGGCGGAGTCACCTAGTGCAG”, 5640 fluorescence intensity (a.u.). “AGCTCTGGTTAATTGCATTTTGGTTCCAGCTATCATGACCCGGAGTCACCTAGTGCAG”: the binding signal is 9190 fluorescence intensity (a.u.). As for “TTTAATTAAATTTAACATTAAATATATTTTGACTATTTGTCGGAGTCACCTAGTGCAG”, the figure is 53000 fluorescence intensity (a.u.); as for “ATATGCTGTTAATTTGTTATATATACGATGTTGGTATATTCGGAGTCACCTAGTGCAG”, 12300 fluorescence intensity (a.u.); as for “ATGTGTATGATGTGTTTGTTTATGTGTGGACTTTATAATACGGAGTCACCTAGTGCAG”, 3210 fluorescence intensity (a.u.). As for “AGTGATTTTACCTAATCTACCTGATCTCCTACTGTCTTGTCGGAGTCACCTAGTGCAG”, the figure is 22100 fluorescence intensity (a.u.); as for “CAAACAAAATTACTGACAAGAGCTTAAACGTTCTCTCATTCGGAGTCACCTAGTGCAG”, 5200 fluorescence intensity (a.u.). With “TATTGTGACTGGTTTTGATTAGTTAAGGAACACCGGATATCGGAGTCACCTAGTGCAG”, the binding signal is 12800 fluorescence intensity (a.u.). Turning to “TAGATTATAATAATCTAGCATAATAATCTACTTGTTTGTTCGGAGTCACCTAGTGCAG”, the binding signal is 9200 fluorescence intensity (a.u.).

Consider “CAGAGTGAAGATTTGTCAATTTGTATGGCACAAATGTCTACGGAGTCACCTAGTGCAG”, for which the binding signal is 13900 fluorescence intensity (a.u.). As to “CACTATGATTATTGTTGTTACACTATCAGCCTCTGCTCAACGGAGTCACCTAGTGCAG”, the binding signal is 17700 fluorescence intensity (a.u.). With “GGGCTAAATTGCTCTAGGCCAAGCATGCTTAACCTTAGAGCGGAGTCACCTAGTGCAG”, the binding signal was 4120 fluorescence intensity (a.u.). As for “ACGAGGAATCAATCATCAGTCGGCGAAGGCCCATCAACAGCGGAGTCACCTAGTGCAG”, the figure is 13300 fluorescence intensity (a.u.); as for “TTTTACTATAACGTTTGATCATTTGTGTTATTTAAATTTTCGGAGTCACCTAGTGCAG”, 4170 fluorescence intensity (a.u.).

Turning to “GCATAAATGCATAATCAGTATAGGAGCAAATCGTTTTAAACGGAGTCACCTAGTGCAG”, the binding signal was 3220 fluorescence intensity (a.u.). As for “AAGAGAGATTATTGACTTATCACCGATCAGCAGAAAAGAGCGGAGTCACCTAGTGCAG”, the figure is 4340 fluorescence intensity (a.u.). With “ATCACAAATTACTTTTAAACTATGAGATTACGATGAATGACGGAGTCACCTAGTGCAG”, the binding signal was 7640 fluorescence intensity (a.u.). As for “ATTGATTTCACGTGTGTTGCGTGAAGGCAGCGGCTCGGTTCGGAGTCACCTAGTGCAG”, the figure is 4030 fluorescence intensity (a.u.).
